# Screen size: about 310,000 compounds; about 14,000 (4.5%) showed an effect of 50% or more. Effects have a minus sign here. The list shows a part of the results.
# Molecular target: human ether-à-go-go-related gene (hERG) potassium channel (human, UniProt Q12809)
# Test: primary screen, population patch clamp on CHO cells stably expressing hERG
# 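Further: peak tail current of the secondary pulse compared with the same well before compound.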
# Sequence of human ether-à-go-go-related gene (hERG) potassium channel (Q12809 whole entry, looked up): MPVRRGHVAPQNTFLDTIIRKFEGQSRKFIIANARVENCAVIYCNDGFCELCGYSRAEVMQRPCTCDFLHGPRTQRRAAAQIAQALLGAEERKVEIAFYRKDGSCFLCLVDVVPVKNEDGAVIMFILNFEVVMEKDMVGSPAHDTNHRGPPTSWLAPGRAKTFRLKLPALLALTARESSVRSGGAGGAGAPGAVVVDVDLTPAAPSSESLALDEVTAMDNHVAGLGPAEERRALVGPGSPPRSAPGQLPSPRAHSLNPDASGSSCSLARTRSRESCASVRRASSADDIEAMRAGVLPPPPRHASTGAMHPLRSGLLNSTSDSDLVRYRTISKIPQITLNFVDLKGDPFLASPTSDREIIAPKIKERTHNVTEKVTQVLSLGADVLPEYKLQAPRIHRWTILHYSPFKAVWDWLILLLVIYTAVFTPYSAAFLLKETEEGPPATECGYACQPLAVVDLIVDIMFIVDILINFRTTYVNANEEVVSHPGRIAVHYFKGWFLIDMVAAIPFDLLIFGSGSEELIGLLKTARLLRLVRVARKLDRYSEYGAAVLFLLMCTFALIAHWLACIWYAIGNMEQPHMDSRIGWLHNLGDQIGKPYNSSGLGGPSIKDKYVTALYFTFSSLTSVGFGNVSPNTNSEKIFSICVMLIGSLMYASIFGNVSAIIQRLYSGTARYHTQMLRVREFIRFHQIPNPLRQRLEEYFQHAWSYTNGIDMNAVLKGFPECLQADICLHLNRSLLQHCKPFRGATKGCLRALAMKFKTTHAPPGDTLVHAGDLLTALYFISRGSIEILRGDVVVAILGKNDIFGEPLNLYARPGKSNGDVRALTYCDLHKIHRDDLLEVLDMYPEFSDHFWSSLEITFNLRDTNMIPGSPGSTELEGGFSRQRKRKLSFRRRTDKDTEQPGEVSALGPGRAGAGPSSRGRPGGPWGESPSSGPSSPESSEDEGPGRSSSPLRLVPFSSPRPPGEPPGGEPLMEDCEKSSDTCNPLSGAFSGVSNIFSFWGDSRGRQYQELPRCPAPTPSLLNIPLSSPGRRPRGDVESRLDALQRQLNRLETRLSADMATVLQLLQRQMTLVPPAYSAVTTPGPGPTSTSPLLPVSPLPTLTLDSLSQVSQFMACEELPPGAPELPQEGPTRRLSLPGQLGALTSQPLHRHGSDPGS
row,SMILES,"hERG current change (%, negative = inhibition) at 10uM [%]"
1,Cc1ccc(C(C(=O)NC2CCCC2)N(C(=O)CNC(=O)c2ccco2)c2ccccc2)o1 (centres unmarked),-32
2,Cc1ccc(C(=O)OC(C)C(=O)N(C)C2CCCCC2)cc1S(=O)(=O)N1CCCCC1 (centres unmarked),-12.8
3,Nc1c(C(=O)NCC2CCCO2)c2nc3ccccc3nc2n1Cc1ccco1 (centres unmarked),10.5
4,CC1(C)CC(NC(=O)c2cc([N+](=O)[O-])cc([N+](=O)[O-])c2)CC(C)(C)N1,24.8
5,NC(=O)C1(N2CCCCC2)CCN(C(=S)NC2CCCC2)CC1,-7.41
6,COCCn1nnnc1C(c1ccc(OC)c(OC)c1)N1CCN(C(=O)c2ccco2)CC1 (centres unmarked),7.36
7,CCC(C)(C)n1nnnc1C(c1cc2ccc(OC)cc2[nH]c1=O)N1CCCCC1 (centres unmarked),-26.3
8,COc1ccc(CCNC(=O)c2cc3cc(F)ccc3nc2C)cc1OC,3.1
9,Cc1[nH]n(C)c(=O)c1N=Nc1ccc(S(C)(=O)=O)cc1,-42.6
10,O=C1NCC(COCc2ccccc2)O1 (centres unmarked),3.36
11,Cc1ccccc1OCC(=O)NC1=NCCS1,8.92
12,CN=C1S/C(=C\c2c(OC)cc(OC)cc2OC)C(=O)N1C,20.4
13,Cc1ccc(-c2nnn(CC(=O)N(c3ccc4c(c3)OCCO4)C(C(=O)NCC3CCCO3)c3ccc(F)cc3)n2)o1 (centres unmarked),11.3
14,O=C(c1ccccc1)c1cnc(Nc2ccccc2Cl)s1,-11.7
15,Cc1ccc(S(=O)(=O)c2cn(CC(=O)Nc3ccccc3)c3ccc(F)cc3c2=O)cc1,7.96
16,CC1(C)Cc2cccc(OCC(=O)NCc3ccc(F)cc3)c2O1,-13.7
17,C/C(=N\O)c1ccco1,22
18,Cn1c(=O)cc(SCC(=O)NCCN2CCN(c3ccccc3F)CC2)c2cc(Cl)ccc21,-54.1
19,O=C(Nc1ccccc1F)Nc1ccccc1Br,2.3

row,SMILES,"hERG current change (%, negative = inhibition) at 10uM [%]"
1,O=C(NCC(=O)N1CCN(S(=O)(=O)c2ccccc2C(F)(F)F)CC1)c1sc2ccccc2c1Cl,12.9
2,COc1ccc(C(=O)CC(=O)C(=O)Nc2cc([N+](=O)[O-])ccc2OC)cc1,17.6
3,Cc1ccccc1-n1c2nc(=O)n(C)c(=O)c-2cc2ccccc21,9.67
4,COc1ccc(S(=O)(=O)N(C)CC(=O)NCC2CCCO2)cc1OC (centres unmarked),18.6
5,CCN1C(=O)N/C(=C/c2ccc(Sc3ccc(C)cc3)o2)C1=O,21.5
6,Cc1nc(N)c(Cc2ccccc2F)c(N)n1,4.49
7,COC(=O)C(C)Sc1nc2c(c(=O)[nH]c(=O)n2C)n1CCCc1ccccc1 (centres unmarked),-72.2
8,C[N+](C)(C)c1ccccc1.[I-],23.4
9,O=C(Nc1ccccc1Oc1ccsc1C(=O)O)c1ccccc1,17.2
10,Nc1c(C(=O)OCC(=O)Nc2ccc(Cl)cc2[N+](=O)[O-])[nH]c(=O)[nH]c1=O,-3.1
11,CC1=NNC(=O)C1CC(=O)N/N=C/c1ccc(C)o1 (centres unmarked),10.7
12,COc1ccc(CCN=C(N)NS(=O)(=O)c2ccc(C)c(C)c2)cc1OC,10.3
13,COc1ccc(NC(=O)CN(c2ccc(OC)c(Cl)c2)S(=O)(=O)c2ccccc2)cc1,-2.1
14,Cc1cc(C)cc(NC(=O)N2CCCC2C(=O)Nc2ccc(-n3cnnn3)c(C)c2)c1 (centres unmarked),-12.3
15,O=C(COc1ccc(S(=O)(=O)N2CCOCC2)cc1)Nc1ccc(Cl)c(C(F)(F)F)c1,-13.1
16,Cc1ccc(-c2nnn(CC(=O)N(c3ccccc3)C(C(=O)NCC3CCCO3)c3cccs3)n2)o1 (centres unmarked),24.6
17,Cc1ccc(OC(C)C)c(CN(CCO)CCO)c1.Cl,3.12
18,CCN(CCNC(=O)c1ccc(CSc2nc3ccncc3[nH]2)cc1)c1ccccc1,-8.51
19,COc1cccc(-n2nnnc2SCC(=O)Nc2cccc(NC(C)=O)c2)c1,4.09

row,SMILES,"hERG current change (%, negative = inhibition) at 10uM [%]"
1,O=C(NCc1ccccc1Cl)C1CCCN(c2ncnc3c2nc2n3CCCCC2)C1 (centres unmarked),-60.8
2,COc1ccc(C(=O)N/C(=C\c2cc(OC)c(OC)cc2[N+](=O)[O-])C(=O)NCC(=O)O)cc1,61
3,O=C(NC1CCCCCC1)c1ccc(OCC2CCCO2)cc1 (centres unmarked),-12
4,CC1(CCc2ccccc2)NC(=O)N(CC(=O)Nc2ccc(S(N)(=O)=O)cc2)C1=O (centres unmarked),17
5,CC(=O)c1cc(-c2ccccc2)n(CC(=O)N2CCN(C3CCCC3)CC2)c1C,-6.62
6,CNS(=O)(=O)c1cccc(C(=O)OCC(=O)N(CCC#N)c2ccccc2)c1,3.5
7,Cc1ccc(-c2cc(=O)c3ccccc3[nH]2)cc1,13.6
8,COc1ccc(NC(=O)Cn2nnc(C(N)=O)c2N)c(OC)c1,3.77
9,Cc1c(NC(=O)Nc2ccccc2Cl)c(=O)n(-c2ccccc2)n1C,7.68
10,CCOC(=O)C(=CNc1cc(Cl)c(-c2ccco2)c(Cl)c1)C(=O)OCC,16.4
11,N#CCSc1nc2ccccc2c(=O)n1CCC(=O)NCCc1ccccc1,13.2
12,COc1ccc(NS(=O)(=O)c2ccc(NC(=S)NC(=O)c3ccc(F)cc3)cc2)nn1,-3.26
13,COc1ccc(/C=N/n2nnnc2N)cc1OC,14.4
14,C/C(=N\NC(N)=O)c1cccc(Cl)c1,7.02
15,N#Cc1c2n(c(=O)[nH]c1=O)CCCCC2,5.4
16,O=C(NCCN1CCCCC1)Nc1ccc(Br)cc1,-52.4
17,CCOC(=O)C1CCCN(S(=O)(=O)CCNC(=O)c2ccccc2)C1 (centres unmarked),-4.11
18,CCCN(C(=O)/C=C/c1ccco1)c1c(N)n(Cc2ccccc2)c(=O)[nH]c1=O,38.9

# Reference: article PMC4336329 (PLoS ONE, 2015)
